What all share (test): CLSI broth microdilution.
Compound in one experiment: OC(Cn1cncn1)(Cn1cncn1)c1ccc(F)cc1F [fluconazole]
Compound in the next experiment: CCC(C)n1ncn(-c2ccc(N3CCN(c4ccc(OCC5COC(Cn6cncn6)(c6ccc(Cl)cc6Cl)O5)cc4)CC3)cc2)c1=O [itraconazole]
Compound in the next experiment: CCCCCOc1ccc(-c2cc(-c3ccc(C(=O)N[C@H]4C[C@@H](O)[C@@H](O)NC(=O)[C@@H]5[C@@H](O)[C@@H](C)CN5C(=O)[C@H]([C@H](O)CC(N)=O)NC(=O)[C@H]([C@H](O)[C@@H](O)c5ccc(O)c(OS(=O)(=O)O)c5)NC(=O)[C@@H]5C[C@@H](O)CN5C(=O)[C@H]([C@@H](C)O)NC4=O)cc3)no2)cc1 [micafungin]
Compound in the next experiment: CC[C@H](C)C[C@H](C)CCCCCCCCC(=O)N[C@H]1C[C@@H](O)[C@@H](NCCN)NC(=O)[C@@H]2[C@@H](O)CCN2C(=O)[C@H]([C@H](O)CCN)NC(=O)[C@H]([C@H](O)[C@@H](O)c2ccc(O)cc2)NC(=O)[C@@H]2C[C@@H](O)CN2C(=O)[C@H]([C@@H](C)O)NC1=O [caspofungin]
Compound in another experiment: C[C@@H](c1ncncc1F)[C@](O)(Cn1cncn1)c1ccc(F)cc1F [voriconazole]
Compound in the next experiment: C[C@@H]1[C@H](O)[C@@H](C)/C=C/C=C/C=C/C=C/C=C/C=C/C=C/[C@H](O[C@@H]2O[C@H](C)[C@@H](O)[C@H](N)[C@@H]2O)C[C@@H]2O[C@](O)(C[C@@H](O)C[C@@H](O)[C@H](O)CC[C@@H](O)C[C@@H](O)CC(=O)O[C@H]1C)C[C@H](O)[C@H]2C(=O)O [amphotericin B]
Compound in the next experiment: CCCCCOc1ccc(-c2ccc(-c3ccc(C(=O)N[C@H]4C[C@@H](O)[C@@H](O)NC(=O)[C@@H]5[C@@H](O)[C@@H](C)CN5C(=O)[C@H]([C@@H](C)O)NC(=O)[C@H]([C@H](O)[C@@H](O)c5ccc(O)cc5)NC(=O)[C@@H]5C[C@@H](O)CN5C(=O)[C@H]([C@@H](C)O)NC4=O)cc3)cc2)cc1 [anidulafungin]
Compound in the next experiment: Nc1[nH]c(=O)ncc1F [flucytosine]
Compound in the next experiment: CC[C@@H]([C@H](C)O)n1ncn(-c2ccc(N3CCN(c4ccc(OC[C@@H]5CO[C@@](Cn6cncn6)(c6ccc(F)cc6F)C5)cc4)CC3)cc2)c1=O [posaconazole]

MIC of invasive clinical C. tropicalis isolates, CLSI broth microdilution (fluconazole 0.12-256 mg/L, up to 1,024 for the azole-resistant cluster and its neighbour group; other ranges not stated); higher = less susceptible. Call: susceptible or wild type [S] / resistant or non-wild type [R] by CLSI breakpoints or cut-offs; intermediate and dose-dependent carry no call. '<=' and '>=' at the end values are inferred; the source marks only some of them. Isolates are numbered anew. Some results are limits rather than exact numbers.

From the supplement of paper PMC10724272 come the findings set out here.

On to “Candida tropicalis isolate 223 (ERG11 copies: 8, Erg11p: Y132F, S154F (heterozygous))”, for which the MIC with fluconazole is 256 mg/L [R]; with itraconazole, 0.5 mg/L [S]; with micafungin it was 0.03 mg/L [S]; with caspofungin, 0.03 mg/L [S]; with voriconazole, no less than 8 mg/L [R]; with amphotericin B it was 0.5 mg/L [S]. Also, the MIC with anidulafungin was 0.03 mg/L [S]; with flucytosine it was no more than 0.06 mg/L [S]; with posaconazole, 0.5 mg/L [R].
Consider “Candida tropicalis isolate 12 (ERG11 copies: 2, Erg11p: no key change)”, for which the MIC worked out at 1 mg/L [S] with fluconazole; 0.12 mg/L [S] with itraconazole; 0.06 mg/L [S] in the experiment with micafungin; 0.06 mg/L [S] with caspofungin; 0.06 mg/L [S] in the experiment with voriconazole; 1 mg/L [S] with amphotericin B. In addition, the MIC with anidulafungin, in the experiment with flucytosine and with posaconazole was 0.12 mg/L [S] in each case.
With “Candida tropicalis isolate 249 (ERG11 copies: 2, Erg11p: no key change)”, the MIC in the experiment with fluconazole is 1 mg/L [S]; with itraconazole, 0.12 mg/L [S]; with micafungin, 0.03 mg/L [S]; in the experiment with caspofungin, 0.03 mg/L [S]; with voriconazole it was 0.06 mg/L [S]; with amphotericin B, 1 mg/L [S]. Further, the MIC with anidulafungin was 0.03 mg/L [S]; with flucytosine it was no more than 0.06 mg/L [S]; with posaconazole, 0.12 mg/L [S].
As to “Candida tropicalis isolate 126 (ERG11 copies: 2, Erg11p: no key change)”, the MIC with fluconazole stood at 2 mg/L [S]; with itraconazole, 0.25 mg/L [S]; in the experiment with micafungin, 0.015 mg/L [S]; with caspofungin it was 0.015 mg/L [S]; in the experiment with voriconazole, 0.06 mg/L [S]; with amphotericin B, 1 mg/L [S]. Also, the MIC was no more than 0.015 mg/L [S] with anidulafungin, no more than 0.06 mg/L [S] with flucytosine and 0.25 mg/L [S] with posaconazole.
“Candida tropicalis isolate 49 (ERG11 copies: 2, Erg11p: no key change)”: the MIC was found to be 2 mg/L [S] with fluconazole; 0.25 mg/L [S] with itraconazole; 0.03 mg/L [S] with micafungin; 0.06 mg/L [S] with caspofungin; 0.25 µg/mL with voriconazole; 1 mg/L [S] with amphotericin B. The MIC with anidulafungin was 0.06 mg/L [S]; in the experiment with flucytosine it was no more than 0.06 mg/L [S]; with posaconazole, 0.25 mg/L [S].
Regarding “Candida tropicalis isolate 191 (ERG11 copies: 2, Erg11p: no key change)”, the MIC in the experiment with fluconazole worked out at 1 mg/L [S]; with itraconazole it was 0.06 mg/L [S]; with micafungin, 0.03 mg/L [S]; with caspofungin, 0.03 mg/L [S]; in the experiment with voriconazole it was 0.06 mg/L [S]; in the experiment with amphotericin B, 1 mg/L [S]. The MIC was no more than 0.015 mg/L [S] in the experiment with anidulafungin, no more than 0.06 mg/L [S] with flucytosine and 0.06 mg/L [S] with posaconazole.
“Candida tropicalis isolate 238 (ERG11 copies: 2, Erg11p: Y257H (homozygous))”: the MIC with fluconazole worked out at 8 mg/L [R]; in the experiment with itraconazole, 0.25 mg/L [S]; in the experiment with micafungin, 0.015 mg/L [S]; with caspofungin, 0.015 mg/L [S]; in the experiment with voriconazole it was 0.5 µg/mL; with amphotericin B, 1 mg/L [S]. In addition, the values for the MIC in the experiment with anidulafungin, with flucytosine and in the experiment with posaconazole were no more than 0.015 mg/L [S], no more than 0.06 mg/L [S] and 0.5 mg/L [R], respectively.
For the test system “Candida tropicalis isolate 275 (ERG11 copies: 2, Erg11p: Y132F, S154F (heterozygous))”, the MIC in the experiment with fluconazole is 16 mg/L [R]; with itraconazole it was 0.25 mg/L [S]; with micafungin, 0.03 mg/L [S]; with caspofungin, 0.03 mg/L [S]; with voriconazole, 1 mg/L [R]; in the experiment with amphotericin B, 1 mg/L [S]. For the same test system, the MIC with anidulafungin is 0.03 mg/L [S]; with flucytosine, no more than 0.06 mg/L [S]; in the experiment with posaconazole, 0.25 mg/L [S].
For the test system “Candida tropicalis isolate 215 (ERG11 copies: 2, Erg11p: Y257H (homozygous))”, the MIC in the experiment with fluconazole amounted to 4 µg/mL; with itraconazole it was 0.5 mg/L [S]; with micafungin it was 0.03 mg/L [S]; in the experiment with caspofungin it was 0.03 mg/L [S]; with voriconazole it was 0.25 µg/mL; in the experiment with amphotericin B it was 0.5 mg/L [S]. For the same test system, the MIC with anidulafungin was 0.06 mg/L [S]; with flucytosine, no more than 0.06 mg/L [S]; with posaconazole, 0.5 mg/L [R].
With “Candida tropicalis isolate 320 (ERG11 copies: 2, Erg11p: no key change)”, the MIC worked out at 2 mg/L [S] with fluconazole; 0.25 mg/L [S] with itraconazole; 0.03 mg/L [S] in the experiment with micafungin; 0.06 mg/L [S] with caspofungin; 0.12 mg/L [S] with voriconazole; 0.5 mg/L [S] with amphotericin B. Further, the MIC in the experiment with anidulafungin turned out to be 0.12 mg/L [S]; with flucytosine it was 0.12 mg/L [S]; with posaconazole, 0.25 mg/L [S].
Turning to “Candida tropicalis isolate 168 (ERG11 copies: 2, Erg11p: no key change)”, the MIC worked out at 1 mg/L [S] with fluconazole; 0.12 mg/L [S] with itraconazole; 0.06 mg/L [S] with micafungin; 0.25 mg/L [S] in the experiment with caspofungin; 0.06 mg/L [S] with voriconazole; 1 mg/L [S] with amphotericin B. The figures for the MIC in the experiment with anidulafungin, in the experiment with flucytosine and with posaconazole were 0.25 mg/L [S], 0.12 mg/L [S] and 0.12 mg/L [S], respectively.
On to “Candida tropicalis isolate 73 (ERG11 copies: 2, Erg11p: no key change)”, for which the MIC with fluconazole was 1 mg/L [S]; in the experiment with itraconazole, 0.12 mg/L [S]; in the experiment with micafungin it was 0.03 mg/L [S]; with caspofungin, 0.03 mg/L [S]; in the experiment with voriconazole, 0.06 mg/L [S]; in the experiment with amphotericin B it was 1 mg/L [S]. The MIC is 0.03 mg/L [S] with anidulafungin, 0.12 mg/L [S] with flucytosine and 0.25 mg/L [S] with posaconazole.
With “Candida tropicalis isolate 167 (ERG11 copies: 6, Erg11p: Y132F, S154F (heterozygous))”, the MIC is 256 mg/L [R] with fluconazole; 1 mg/L [R] in the experiment with itraconazole; 0.03 mg/L [S] with micafungin; 0.015 mg/L [S] in the experiment with caspofungin; no less than 8 mg/L [R] with voriconazole; 1 mg/L [S] with amphotericin B. Moreover, the figures for the MIC with anidulafungin, with flucytosine and with posaconazole were 0.03 mg/L [S], no more than 0.06 mg/L [S] and 1 mg/L [R], respectively.
As for “Candida tropicalis isolate 158 (ERG11 copies: 2, Erg11p: no key change)”, the MIC is 0.5 mg/L [S] with fluconazole; 0.03 mg/L [S] with itraconazole; 0.03 mg/L [S] with micafungin; 0.03 mg/L [S] with caspofungin; 0.03 mg/L [S] with voriconazole; 0.5 mg/L [S] with amphotericin B. The results for the MIC with anidulafungin, in the experiment with flucytosine and with posaconazole were no more than 0.015 mg/L [S], no more than 0.06 mg/L [S] and 0.03 mg/L [S], respectively.
As to “Candida tropicalis isolate 263 (ERG11 copies: 6, Erg11p: Y132F, S154F (heterozygous))”, the MIC was 256 mg/L [R] with fluconazole; 0.5 mg/L [S] in the experiment with itraconazole; 0.03 mg/L [S] with micafungin; 0.03 mg/L [S] with caspofungin; no less than 8 mg/L [R] in the experiment with voriconazole; 1 mg/L [S] with amphotericin B. In addition, the MIC was 0.06 mg/L [S] with anidulafungin, no more than 0.06 mg/L [S] in the experiment with flucytosine and 0.5 mg/L [R] in the experiment with posaconazole.
For the test system “Candida tropicalis isolate 48 (ERG11 copies: 8, Erg11p: Y132F, S154F (heterozygous))”, the MIC with fluconazole was 512 mg/L [R]; with itraconazole it was 2 mg/L [R]; in the experiment with micafungin it was 0.03 mg/L [S]; with caspofungin, 0.5 µg/mL; with voriconazole, no less than 8 mg/L [R]; in the experiment with amphotericin B, 1 mg/L [S]. In addition, the MIC in the experiment with anidulafungin is 0.12 mg/L [S]; with flucytosine, no more than 0.06 mg/L [S]; with posaconazole, 1 mg/L [R].
